Source: the BET-seq Pho4 binding data (Le et al. 2018)
This is one part of the list. The energies were worked out here from pooled read counts, against the library average; single values are noisy.

Target: T1, Pho4 (S. cerevisiae) (UniProt P07270)
T1 sequence: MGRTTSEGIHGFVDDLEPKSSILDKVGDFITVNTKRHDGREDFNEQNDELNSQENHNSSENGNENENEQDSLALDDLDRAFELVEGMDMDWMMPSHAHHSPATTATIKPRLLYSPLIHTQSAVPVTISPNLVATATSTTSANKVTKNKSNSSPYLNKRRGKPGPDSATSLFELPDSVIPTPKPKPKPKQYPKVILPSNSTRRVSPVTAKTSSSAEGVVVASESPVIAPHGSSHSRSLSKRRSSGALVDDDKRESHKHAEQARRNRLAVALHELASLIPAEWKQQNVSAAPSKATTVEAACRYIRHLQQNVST
Test: relative binding free energy (BET-seq); higher = weaker binding
Settings: reference: library average

| Sequence | relative binding free energy |
| --- | --- |
| GTAGGCACGTGCAGTT | -0.14 kcal/mol |
| TAGGGCACGTGTCATG | -0.17 kcal/mol |
| CTTGTCACGTGGGCAT | -0.05 kcal/mol |
| AAGGTCACGTGTTGCG | 0.3 kcal/mol |
| AGGGTCACGTGGGTGA | -0.03 kcal/mol |
| GTTACCACGTGGTGTG | -0.08 kcal/mol |
| ACAGGCACGTGGGTAT | -0.25 kcal/mol |
| AGTAGCACGTGGGTGG | -0.23 kcal/mol |
| ATGATCACGTGTATGT | 0.2 kcal/mol |
| CTTTGCACGTGGATAG | -0.08 kcal/mol |
| ATTAGCACGTGAATTA | 0.2 kcal/mol |
| TTGTACACGTGTGGTT | 0.14 kcal/mol |
| GGTTCCACGTGGGCGT | -0.07 kcal/mol |
| ACTGCCACGTGGTGGT | -0.16 kcal/mol |
| TGGTGCACGTGCAGAA | -0.03 kcal/mol |
| GTAGGCACGTGTTGCG | -0.04 kcal/mol |
| TTGATCACGTGGAGCG | 0.05 kcal/mol |
| GGGGACACGTGAATGC | 0.47 kcal/mol |
| GTCTGCACGTGGGAGG | -0.02 kcal/mol |
| GTTTACACGTGTCTAT | 0.1 kcal/mol |
| GGGTCCACGTGAGTTC | 0.42 kcal/mol |
| TGATTCACGTGGGGCA | 0.18 kcal/mol |
| TTTCGCACGTGGCTTT | -0.13 kcal/mol |
| AATGCCACGTGGGTCT | -0.05 kcal/mol |
| GTAATCACGTGGAGAG | 0.12 kcal/mol |

| Sequence | relative binding free energy |
| --- | --- |
| ATGTGCACGTGAGAGC | 0.14 kcal/mol |
| GGGGACACGTGGCGTC | -0.01 kcal/mol |
| CAAGGCACGTGTTAAG | 0 kcal/mol |
| ATATACACGTGAGTTG | 0.07 kcal/mol |
| TGGAGCACGTGGCTTA | -0.09 kcal/mol |
| TAGAGCACGTGTTCGT | -0.17 kcal/mol |
| TTGCGCACGTGTTAAG | 0.03 kcal/mol |
| GTGCTCACGTGGGCGG | -0.01 kcal/mol |
| ATGTTCACGTGGAAAA | 0.34 kcal/mol |
| AGTAGCACGTGTATTT | -0.11 kcal/mol |
| TGCGGCACGTGGTTTG | -0.15 kcal/mol |
| GTAGGCACGTGTACGG | 0.04 kcal/mol |
| TCTTGCACGTGATTGT | 0.2 kcal/mol |
| GAGGCCACGTGTTATT | 0.12 kcal/mol |
| GGTGACACGTGATTTA | 0.11 kcal/mol |
| TAAGTCACGTGCTGGG | 0.13 kcal/mol |
| ATAGGCACGTGGGAGA | -0.18 kcal/mol |
| GAGTTCACGTGTCGGT | 0.55 kcal/mol |
| TCGAGCACGTGAGAGT | 0.32 kcal/mol |
| TGTTACACGTGGCGGC | 0.1 kcal/mol |
| TTGGTCACGTGAAAAG | 0.28 kcal/mol |
| TGTGGCACGTGTTGTC | -0.07 kcal/mol |
| TTGGGCACGTGCCGGT | -0.25 kcal/mol |
| AAGTTCACGTGTTTTA | 0.31 kcal/mol |
| TGGCGCACGTGGGAAT | -0.07 kcal/mol |

| Sequence | relative binding free energy |
| --- | --- |
| GTATGCACGTGTCGGA | 0 kcal/mol |
| CATTTCACGTGCTGTT | 0.21 kcal/mol |
| CTTTGCACGTGTGGTT | 0.07 kcal/mol |
| TTACGCACGTGATGCT | 0.15 kcal/mol |
| TAAGGCACGTGTGCAG | -0.13 kcal/mol |
| TTCGGCACGTGTTCGT | 0.08 kcal/mol |
| ATTGTCACGTGATTGG | 0.25 kcal/mol |
| ATTTGCACGTGCCAGT | -0.1 kcal/mol |
| ATGGGCACGTGGAGGA | -0.14 kcal/mol |
| ATAGGCACGTGTGGTC | -0.13 kcal/mol |
| TTGGGCACGTGAGGTA | 0.21 kcal/mol |
| CTCGACACGTGAGGGG | 0.09 kcal/mol |
| GCTTTCACGTGTTTTT | 0.23 kcal/mol |
| CTTTTCACGTGATGGG | 0.22 kcal/mol |
| ATTGTCACGTGAGTAA | 0.23 kcal/mol |
| TTTGTCACGTGAAGAA | 0.22 kcal/mol |
| CTTTACACGTGGTTTG | 0.1 kcal/mol |
| GCGGGCACGTGTGAGA | 0.08 kcal/mol |
| TTCTGCACGTGGAGAT | 0.08 kcal/mol |
| CTGGTCACGTGGTATG | -0.06 kcal/mol |
| TCGGGCACGTGTGGAT | 0 kcal/mol |
| GTGTTCACGTGACTTG | 0.3 kcal/mol |
| TAGTCCACGTGGAATG | 0.22 kcal/mol |
| TGACGCACGTGATGGT | -0.09 kcal/mol |
| AGTCTCACGTGATGTG | 0.28 kcal/mol |

| Sequence | relative binding free energy |
| --- | --- |
| ATGGGCACGTGAATTT | 0.18 kcal/mol |
| AGAGTCACGTGGGATT | 0.12 kcal/mol |
| CTGATCACGTGTGTAG | 0.01 kcal/mol |
| CGATTCACGTGATTGA | 0.33 kcal/mol |
| TTTTTCACGTGAGTAG | 0.44 kcal/mol |
| TGTGCCACGTGAAGGT | 0.12 kcal/mol |
| GGTGTCACGTGAGGTG | 0.29 kcal/mol |
| TTAGGCACGTGTGGCT | -0.04 kcal/mol |
| AGGGCCACGTGGTCAG | -0.19 kcal/mol |
| TTGCGCACGTGTGTTA | -0.09 kcal/mol |
| TGTTGCACGTGGAGCG | 0.04 kcal/mol |
| TTTTTCACGTGTGAAT | 0.33 kcal/mol |
| TGGGGCACGTGGTCAA | -0.22 kcal/mol |
| AGGGTCACGTGGAGTC | 0.07 kcal/mol |
| AGTTTCACGTGCGTTT | 0.26 kcal/mol |
| ATGCTCACGTGAGGTG | 0.35 kcal/mol |
| CGCGTCACGTGATGGT | 0.18 kcal/mol |
| TCGTGCACGTGTAGCG | 0.06 kcal/mol |
| GAGGGCACGTGGTCGG | -0.03 kcal/mol |
| CGAGGCACGTGAGCGG | 0.01 kcal/mol |
| GGCTTCACGTGGTGGG | 0.31 kcal/mol |
| AGGAGCACGTGTTTTA | -0.07 kcal/mol |
| AGGTACACGTGCTTTG | 0.02 kcal/mol |
| TTGGGCACGTGTGTAC | -0.1 kcal/mol |
| TCATTCACGTGTATTG | 0.2 kcal/mol |

| Sequence | relative binding free energy |
| --- | --- |
| ATACGCACGTGGTTTG | -0.14 kcal/mol |
| TTTTGCACGTGACTGG | 0.02 kcal/mol |
| ATTATCACGTGACGAG | 0.3 kcal/mol |
| GGTGGCACGTGCTATT | 0.06 kcal/mol |
| TAGTGCACGTGTTAGG | -0.01 kcal/mol |
| GGAATCACGTGGGGCA | 0.08 kcal/mol |
| TCGTCCACGTGTGGTT | 0.24 kcal/mol |
| CGTGACACGTGTGGGG | 0.03 kcal/mol |
| GTGTACACGTGGATGG | -0.04 kcal/mol |
| ACGGTCACGTGGGTTA | 0.01 kcal/mol |
| CGGTTCACGTGTGTTA | 0.2 kcal/mol |
| CTCTGCACGTGTAGGT | -0.06 kcal/mol |
| GTGTGCACGTGAGCTT | 0.29 kcal/mol |
| TGTTGCACGTGAGTAA | 0.17 kcal/mol |
| AGAGGCACGTGGGATT | -0.15 kcal/mol |
| TGTGTCACGTGTACGG | 0.15 kcal/mol |
| GGGAACACGTGGCGTA | -0.06 kcal/mol |
| GTGGTCACGTGATATG | 0.15 kcal/mol |
| GTTATCACGTGCGGGT | 0.17 kcal/mol |
| GGTTGCACGTGTGATC | 0.19 kcal/mol |
| AAGTTCACGTGCGGTT | 0.34 kcal/mol |
| AGTTGCACGTGGCAAT | -0.01 kcal/mol |
| GTTGTCACGTGTGTAC | 0.22 kcal/mol |
| CGGTACACGTGCTTGT | 0.07 kcal/mol |
| TTTTGCACGTGGGGTC | -0.19 kcal/mol |

| Sequence | relative binding free energy |
| --- | --- |
| TCTTTCACGTGTTATT | 0.22 kcal/mol |
| ATGGACACGTGTAAAG | 0.1 kcal/mol |
| TCGTGCACGTGTGGCG | -0.09 kcal/mol |
| TCTGTCACGTGTGTGA | -0.01 kcal/mol |
| ACGGCCACGTGTGGTG | -0.05 kcal/mol |
| ATAGGCACGTGGTAAT | -0.25 kcal/mol |
| TTAGGCACGTGAGACG | 0.02 kcal/mol |
| ATTGGCACGTGAACTG | 0.04 kcal/mol |
| TTGTGCACGTGGATGG | 0.01 kcal/mol |
| GTTTTCACGTGGCGAA | 0.28 kcal/mol |
| TGTAGCACGTGTTTTC | -0.03 kcal/mol |
| GTCGTCACGTGTGTAG | 0.1 kcal/mol |
| TAAAGCACGTGTGTAG | -0.09 kcal/mol |
| CTGGTCACGTGTTTAG | 0.11 kcal/mol |
| TTGGGCACGTGACCGG | -0.08 kcal/mol |
| TGTCTCACGTGGTGTT | 0.18 kcal/mol |
| TGTAACACGTGGGGTG | -0.09 kcal/mol |
| CAGTACACGTGTGGTG | 0.14 kcal/mol |
| CGGTGCACGTGGGCCG | -0.13 kcal/mol |
| TGAGTCACGTGTGCGT | 0 kcal/mol |
| AGGTTCACGTGTTTAG | 0.21 kcal/mol |
